Measurements from PubChem BioAssay AID1478 (National Center for Advancing Translational Sciences (NCATS), 2009).
Screen size: about 200,000 compounds; about 860 (0.43%) were called active. This list was built around the results that the source calls inconclusive (neither active nor inactive); the mix of calls is not that of the screen. Calls follow the shape of the dose curve; as a rule, active = well fitted inhibition curve with a large enough effect; inconclusive = small, poorly fitted or top-dose-only effect; inactive = flat fitted curve, though single readings scatter. Potencies beside an inconclusive call are fits to weak or partial responses and may not hold up.
Also: nearly all actives have a fitted effect of over 40% in size.
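For max response, negative = inhibition in this document: plate controls were neutral wells for no effect and buffer without enzyme for full effect.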
Potency is read from the fitted curve at half-maximal effect; tags tell the direction and shape of the fitted curve.

What follows are compounds tested against Cruzipain (Trypanosoma cruzi) (UniProt P25779) (assay: qHTS Assay for Promiscuous and Specific Inhibitors of Cruzain (with detergent)). Conditions: purified cruzain, Z-FR-AMC fluorescence, 0.01% Triton.
Chain of UniProt P25779 (P25779 whole entry, looked up): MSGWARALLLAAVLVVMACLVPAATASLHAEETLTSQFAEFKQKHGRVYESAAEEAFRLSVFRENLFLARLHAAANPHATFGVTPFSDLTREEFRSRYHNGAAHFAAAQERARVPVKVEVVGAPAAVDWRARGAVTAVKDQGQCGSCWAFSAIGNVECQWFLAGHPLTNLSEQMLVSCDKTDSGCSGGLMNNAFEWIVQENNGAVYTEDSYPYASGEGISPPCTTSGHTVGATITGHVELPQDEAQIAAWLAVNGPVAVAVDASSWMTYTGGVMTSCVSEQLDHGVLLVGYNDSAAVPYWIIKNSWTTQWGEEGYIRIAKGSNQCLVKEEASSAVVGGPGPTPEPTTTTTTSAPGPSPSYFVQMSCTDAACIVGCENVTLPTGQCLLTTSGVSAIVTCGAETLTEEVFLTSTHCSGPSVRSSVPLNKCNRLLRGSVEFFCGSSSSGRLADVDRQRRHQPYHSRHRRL
Outline: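 Detergent-containing arm of a paired screen for aggregation-based inhibition: 0.01% Triton X-100 present. Cruzain at 1.5 nM cleaved 2 uM Z-FR-AMC at pH 5.5 with 5 mM DTT; AMC fluorescence gain over 60 s measured activity.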
Cc1ccc(C2C3=C(Nc4[nH]n(-c5ccccc5)c(=O)c42)c2ccccc2C3=O)cc1 (stereo not drawn) was tested, and the Potency was inconclusive: 22.4 µM [inhibitor, single point].
In the case of CCN(CCCNC(=O)c1cc2cc3ccc(OC)cc3nc2s1)c1ccccc1, the Potency is reported as active: 20 µM.
O=C(COC(=O)[C@H](Cc1ccccc1)NC(=O)c1cccs1)Nc1c(Cl)cccc1Cl was tested, and the Potency was active: 15.8 µM.
With O=c1cnc2cnc(N3CCNCC3)nc2n1Cc1ccc(F)cc1 the max response, negative = inhibition was inactive: -6.76%.
CCC1=C2CC[C@H]3C(=O)N(C)C(=O)[C@H]3[C@H]2[C@@]2(C)C(=O)N(CC3CC3)C(=O)N2C1=O was tested, and the max response, negative = inhibition was inactive: -2.65%.
Cc1nc2ccccc2cc1O was tested, and the Potency was inconclusive: 35.5 µM [inhibitor, single point].
With COc1ccc(/C=C2/N=C(c3cccs3)OC2=O)cc1OC(C)C the Potency was inconclusive: 15.8 µM [inhibitor, partial curve].
In the case of O=C(Nc1cccc(-c2cn3ccccc3n2)c1)c1cc2ccccc2oc1=O, the Potency is reported as active: 3.55 µM.
With CC(C)(C)c1ccc(-c2nc(SCC(=O)Nc3ccc(Cl)cc3)[nH]c(=O)c2C#N)cc1 the Potency was active: 15.8 µM.
CN1CCc2nc3sc(C(=O)C45CC6CC(CC(C6)C4)C5)c(N)c3cc2C1 was tested, and the Potency was inconclusive: 10 µM [inhibitor, partial curve].
For NC1=N[C@H](c2ccc(Cl)cc2)N(c2ccc(S(N)(=O)=O)cc2)C(N)=N1, the max response, negative = inhibition was inactive: -1.87%.
O=C(Nc1ccccc1F)c1cnc(N2CCCCC2)c2ccccc12 was tested, and the max response, negative = inhibition was inactive: -9.44%.
In the case of O=C(CNC(=O)c1ccco1)NCC(=O)OC(C(=O)c1ccccc1)c1ccc(Cl)cc1 (stereo not drawn), the Potency is reported as inconclusive: 31.6 µM [inhibitor, single point].
With CC1CCCCN1Cc1c(O)ccc2c(=O)c(-c3ccc(Cl)cc3)c(C(F)(F)F)oc12 (stereo not drawn) the Potency was inconclusive: 25.1 µM [inhibitor, single point].
For CCOC(=O)c1sc2ncn(CC(=O)Nc3ccc(F)cc3F)c(=O)c2c1C, the max response, negative = inhibition was inactive: 7.02%.
With COc1ccc2cc3cc(C(=O)NC(C)C)oc3nc2c1 the Potency was inconclusive: 31.6 µM [inhibitor, single point].
For Cn1c(CS/C(N)=N/N=C/c2ccccc2)c(Br)c(=O)n1-c1ccccc1, the Potency was inconclusive: 28.2 µM [inhibitor, single point].
C#CCOCCOCCOCCNc1nc(N2CCN(C(=O)[C@H]([C@@H](C)CC)n3cc(CCCN=C(N)N)nn3)CC2)nc(N2CCN(C(=O)[C@H](C)n3cc(CCCN=C(N)N)nn3)CC2)n1 was tested, and the Potency was inconclusive: 28.2 µM [inhibitor, single point].
With O=C(NCc1ccco1)c1sc2cc(F)ccc2c1Cl the Potency was inconclusive: 28.2 µM [inhibitor, single point].
In the case of CCCCc1ccc(C2C(C#N)=C(N)SC(N)=C2C#N)s1, the Potency is reported as inconclusive: 28.2 µM [inhibitor, single point].
With CN1CCN(S(=O)(=O)c2cccc(C(=O)Nc3sc4c(c3C(N)=O)CCCC4)c2)CC1 the Potency was inconclusive: 22.4 µM [inhibitor, single point].
In the case of Cc1cc(=O)n2ccccc2c1C#N, the Potency is reported as inconclusive: 39.8 µM [inhibitor, single point].
With CNc1oc(/C=C/c2cc(OC)c(OC)c(OC)c2)nc1C#N the Potency was active: 28.2 µM.
O=C(O)CCc1ccc(-c2ccc(Cl)cc2)n1-c1cccc(C(F)(F)F)c1 was tested, and the Potency was inconclusive: 15.8 µM [inhibitor, partial curve].
In the case of CCOc1ccc(-c2cc(CCCC(=O)NCCc3ccc(OC)c(OC)c3OC)no2)cc1, the max response, negative = inhibition is reported as inactive: 0.225%.
For Cc1cc(O)c(CN2CCN(c3ccc(F)cc3)CC2)c2oc(=O)cc(C)c12, the Potency was inconclusive: 28.2 µM [inhibitor, single point].
COC(=O)c1cc2c(s1)-c1ccccc1OC2 was tested, and the Potency was inconclusive: 25.1 µM [inhibitor, single point].
In the case of Nn1cnnc1N/N=C/c1cc([N+](=O)[O-])c(Cl)cc1Cl, the Potency is reported as inconclusive: 25.1 µM [inhibitor, single point].
O=C(CSc1ccc(Cl)cc1)Nc1ccc(-c2nc3ccccc3[nH]2)cc1 was tested, and the Potency was inconclusive: 25.1 µM [inhibitor, single point].
With Nc1ccc2nc(-c3cc(Cl)c(N)c(Cl)c3)[nH]c2c1 the Potency was inconclusive: 31.6 µM [inhibitor, single point].
CCOC(=O)c1c(C)n(OCc2ccccc2)c2ccc3nonc3c12 was tested, and the Potency was inconclusive: 39.8 µM [inhibitor, single point].
COC(=O)c1sccc1S(=O)(=O)N1CCN(c2ccc(C)cc2C)CC1 was tested, and the max response, negative = inhibition was inactive: -6.27%.
For COc1cc2nc(Nc3cccc(C)c3)nc(N)c2cc1OC, the Potency was inconclusive: 39.8 µM [inhibitor, single point].
For O=c1cc(-c2cc(O)c(O)c(O)c2)oc2cc(O)cc(O)c12, the Potency was inconclusive: 20 µM [inhibitor, single point].
In the case of Clc1ccc2c(N/N=C/c3ccccc3Br)ccnc2c1, the Potency is reported as inconclusive: 28.2 µM [inhibitor, single point].
In the case of O=C(c1ccco1)N1CCC2(CCCN(Cc3ccccc3)C2)CC1, the max response, negative = inhibition is reported as inactive: 0.589%.
With Cc1ccc2nc(SCC(=O)Nc3cccc([N+](=O)[O-])c3)[nH]c2c1 the Potency was inconclusive: 28.2 µM [inhibitor, single point].
With O=C(O)c1c[nH]c2c(ccc3[nH]cc(C(=O)O)c(=O)c32)c1=O the max response, negative = inhibition was inactive: -0.119%.
In the case of O=C(/C=C/c1ccco1)Nc1ccc(-c2nc3ccccc3[nH]2)cc1, the Potency is reported as inconclusive: 3.55 µM [inhibitor, full curve].
In the case of O=C(Nc1ccc(-c2nc3c(ccc4ccccc43)o2)cc1)c1ccco1, the Potency is reported as inconclusive: 25.1 µM [inhibitor, single point].
With CCC(CO)NC(=O)C(=O)Nc1c2c(nn1-c1ccc(F)cc1)CSC2 (stereo not drawn) the Potency was inconclusive: 25.1 µM [inhibitor, single point].
In the case of Nc1c(C(=O)Nc2nc3ccccc3s2)sc2nc(-c3cccs3)ccc12, the max response, negative = inhibition is reported as inactive: -8.72%.
Cc1ccc(NC(=O)c2nc(S(C)(=O)=O)ncc2N(Cc2ccccc2)Cc2ccco2)c(C)c1 was tested, and the max response, negative = inhibition was inactive: -4.09%.
